PubChem BioAssay AID1159614 (National Center for Advancing Translational Sciences (NCATS), 2016)
Hit rate of the full screen: of about 45,000 compounds, about 65 (0.1%) were called active. Calls follow the shape of the dose curve; as a rule, active = well fitted activation curve with a large enough effect; inconclusive = small, poorly fitted or top-dose-only effect; inactive = no such curve, though single readings can be large or run the other way. The list shows a part of the results.

target: Galactocerebrosidase (Homo sapiens) (UniProt P54803); experiment: A Novel Cell-Based Assay to Identify Small Molecules for B -Galactocerebrosidase; details: 145M-Twi-hGALC-G270D cells (Twitcher mouse brain line with human GALC G270D), HMU-beta-Gal fluorescence, 48 h; series mostly up to 57.5 µM; activation: at the top concentration; also: 0% is about no effect; nearly all actives have a fitted effect of over 65% in size
UniProt P54803, sequence (P54803 whole entry, looked up): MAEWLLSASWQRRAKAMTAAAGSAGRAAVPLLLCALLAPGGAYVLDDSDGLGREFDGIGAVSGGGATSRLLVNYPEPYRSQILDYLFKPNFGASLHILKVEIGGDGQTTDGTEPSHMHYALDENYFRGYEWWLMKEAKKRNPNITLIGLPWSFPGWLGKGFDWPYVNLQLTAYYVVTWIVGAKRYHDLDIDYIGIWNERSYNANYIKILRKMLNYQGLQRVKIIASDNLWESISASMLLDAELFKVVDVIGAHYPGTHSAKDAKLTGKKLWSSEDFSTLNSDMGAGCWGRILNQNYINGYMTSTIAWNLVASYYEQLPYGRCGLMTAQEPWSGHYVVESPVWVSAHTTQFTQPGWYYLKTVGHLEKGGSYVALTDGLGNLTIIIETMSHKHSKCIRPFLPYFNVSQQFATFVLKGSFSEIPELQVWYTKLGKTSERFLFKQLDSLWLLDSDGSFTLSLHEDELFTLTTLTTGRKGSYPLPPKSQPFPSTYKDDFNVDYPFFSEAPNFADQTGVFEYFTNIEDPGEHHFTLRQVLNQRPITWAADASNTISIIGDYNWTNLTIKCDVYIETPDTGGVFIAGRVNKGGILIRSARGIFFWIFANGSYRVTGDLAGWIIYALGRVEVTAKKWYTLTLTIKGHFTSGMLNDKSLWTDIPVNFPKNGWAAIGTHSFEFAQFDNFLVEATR
Procedure, shortened: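 Fluorescence readout: HMU-β-gal cleavage by mutant GALC (0.1 mM final, citrate/phosphate pH 5.2 with 1 mg/mL taurocholate), stopped with carbonate/bicarbonate plus Triton X-100. Cells: murine Twitcher 145M-Twi expressing human G270D GALC; qHTS for activators.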

activation, inactive:
COc1ccccc1C(=O)Nc1ccc2oc(-c3cccc(Cl)c3Cl)nc2c1 7.85%, COc1ccc(C2C(C(N)=O)=C(C)Nc3nc(SCc4ccccc4Cl)nn32)cc1OC (stereo unspecified) 18.3%, CCOc1ccc(C(=O)NCc2nc3cccnc3n2Cc2ccc(F)cc2)cc1OCC -13%, Cc1ccc2nc(N3CCC(C(=O)N4CCN(c5cccc(C)c5C)CC4)CC3)[nH]c2c1 3.88%, O=c1[nH]cnc2c1ncn2[C@@H]1O[C@H](CO)[C@@H](O)[C@H]1O -14.1%, Cc1sc2c(c1C)c(=O)n(-c1ccc(Cl)cc1)c(=O)n2Cc1cc(=O)n2ccccc2n1 -10.9%, CC1CCCN(C(=O)c2cc3c(=O)n(C)c4ccccc4c3s2)C1 (stereo unspecified) -13%, O=C(NCc1ccco1)c1ccc(Cn2c(SCc3ccc(F)cc3)nc3cccnc32)cc1 7.22%, Cc1ccc(CNC(=O)c2nc(SCc3ccccc3F)ncc2Cl)cc1 -2.99%, CCOC(=O)c1ccccc1NC(=O)CSc1nc2ccncc2[nH]1 -13.3%, CCCN(Cc1cccs1)C(=O)Nc1ccc(OCC)cc1 -8.22%, Cc1cc(C)cc(NC(=O)C(=O)NCC(c2ccc3c(c2)OCO3)N2CCN(C)CC2)c1 (stereo unspecified) -7.09%, COc1ccc(NC(=O)Cn2c(=O)c(-c3cc(C)ccc3NC(C)=O)nc3ccccc32)c(OC)c1 -5.21%, CCC(=O)Nc1cc(-c2cccc(C)c2)nn1-c1ccccc1 -8.85%, COc1ccc(N2CCN(Cc3nc4c(c(=O)[nH]c(=O)n4C)n3Cc3ccc(Cl)cc3)CC2)cc1 13.5%, Cc1cccc(-c2nc(SCC(=O)N3CCc4ccccc43)c3c(=O)n(C)c(=O)n(C)c3n2)c1 -8.41%, CCOC(=O)CNc1nc(Oc2ccc(=O)n(C)n2)nc(N(CC)CC)n1 -17.1%, CCOc1ccc(-n2c(SCC(=O)N3CCc4ccccc43)nc3c([nH]c4ccccc43)c2=O)cc1 -2.98%, Cc1cccc(-c2nnc(SCc3cc(=O)c4cccc(Cl)c4[nH]3)n2C)c1 -2.12%, COc1cccc2c1ncc1c(-c3ccc(C)cc3)nn(-c3cccc([N+](=O)[O-])c3)c12 4.41%, COc1ccc(OC)c(NC(=O)c2cc(-c3ccc(Cl)s3)nc3ccccc23)c1 -12.9%, Cc1ccc(C2CCN(C(=O)c3cnn(-c4cccc(Cl)c4)c3C3CCN(C(=O)OC(C)(C)C)CC3)C2)cc1 (stereo unspecified) -16.1%, COc1ccc(NC(=O)N(CCC(C)C)C(C)c2cccs2)c(OC)c1 (stereo unspecified) -16.8%, O=C(COc1ccccc1)NCc1ccc2c(c1)CCN2C(=O)c1ccc(Cl)cc1 -10.7%, Cc1cc(=O)[nH]c2nnc(SCC(=O)Nc3ccc(OC(F)(F)F)cc3)n12 -14.2%, COc1ccc(NC(=O)CSc2nc3c([nH]c4ccccc43)c(=O)n2-c2ccccc2)c(OC)c1 -11.2%, COCCNc1ncnc2c1c(-c1ccccc1)cn2-c1ccc(C)c(Cl)c1 -3.73%, O=C(NCc1ccco1)c1ccc2c(c1)N(Cc1ccccc1)C(=O)c1ccccc1S2(=O)=O -6.18%, NCc1nc2cccnc2n1Cc1ccccc1Cl -10.5%, COc1ccccc1CNC(=O)CCc1c(C)nn(-c2ccc(N3CCOCC3)nn2)c1C -7.91%, Cc1ccc(CNC(=O)c2oc3c(c2C)-c2nn(Cc4ccc(Cl)cc4)cc2CC3)cc1 -16.4%, CCN(CC)S(=O)(=O)c1ccc(NC(=O)NCc2noc3ccc(C)cc23)cc1 -24.1%, Cc1cc(S(=O)(=O)C(CNC(=O)c2ccc(OC(C)C)cc2)c2cccs2)ccc1F (stereo unspecified) 5.1%, COc1ccc(-n2ncc3c(NC(C)(C)CO)ncnc32)cc1 -19.2%, CCOc1ccc(NC(=O)Cn2c3ncccc3c(=O)n2-c2ccc(CC)cc2)cc1 -21.6%, Cc1cc(N2CCN(c3ccccc3F)CC2)n2cnnc2n1 2.1%, COc1ccc(NC(=O)CCc2nc3cccnc3n2Cc2cccs2)c(OC)c1 -15.2%, CCOC(=O)c1ccc(NC(=O)Nc2cccc(OCc3cc(=O)n4ccc(C)cc4n3)c2)cc1 -8.72%, CCCCOc1ccc(NC(=O)CSc2ccc(C(=O)O)cn2)cc1 0.0872%, Cc1ccc(CN2C(=O)SC(Nc3ccccc3)C2=O)cc1 (stereo unspecified) -4.61%, COc1cccc(CNC(=O)CCn2ccc3cc(S(=O)(=O)N4CCCC4)ccc32)c1 -7.12%, O=C(NCCn1cc(SCc2ccc(C(F)(F)F)cc2)c2ccccc21)c1ccccc1F -2.82%, O=C(NCc1ccc(F)cc1)c1ccc2c(c1)N(Cc1ccc(F)cc1Cl)C(=O)CS2 -2.97%, CCCSc1ncc(Cl)c(C(=O)Nc2ccc(OC)cc2OC)n1 -5.32%, COc1ccc(C2=C(C)C(=O)N(Cc3ccc(C(=O)NCc4ccccc4C)cc3)S2(=O)=O)cc1 2.68%, O=S(=O)(NCCc1ccc(Cl)cc1)c1ccc(N2CCCCS2(=O)=O)cc1 -12%, Cc1ccc(C2C=C(c3ccc(Cl)cc3)Nc3nc(NC(=O)CCC(=O)O)nn32)cc1 (stereo unspecified) -5.24%, CCOc1ccc(NC(=O)CCn2c(-c3ccc(F)cc3)cc(C(C)=O)c2C)cc1 -10.3%, COc1ccc(NC(=O)Nc2nnc(SCC(=O)Nc3cccc(C)c3C)s2)cc1 -19.5%, CCn1cnc2c(=O)oc3ccc(S(=O)(=O)N4CCN(c5cc(C)ccc5C)CC4)cc3c21 -8.06%, CCC(C)Cn1c(COc2ccc(OC)cc2)nc2ccccc21 (stereo unspecified) -14.3%, CCCOc1ccc(C(=O)Nc2cc3nn(-c4ccc(CC)cc4)nc3cc2C)cc1 -24.8%, O=C(CSc1nnc(-c2ccccc2)c(-c2ccccc2)n1)Nc1ccccc1Cl -6.18%, COc1ccccc1OCCCn1c(-c2ccc(Cl)cc2)nc2ccccc2c1=O -5.45%, CCOC(=O)CC(NC(=O)c1cc2cc(OC)ccc2oc1=O)c1ccc(OC)cc1 (stereo unspecified) -4.94%, Cc1cccc(C(=O)Nc2nnc(S(=O)(=O)N3CCC(C)CC3)s2)c1 -18%, O=C(CCC(=O)N1CC2CCCN2c2ccccc21)NCc1ccccc1F (stereo unspecified) -6.54%, CCOC(=O)Cc1c(C)nc2c(-c3ccc(OC)c(OC)c3)c(C)nn2c1C -15.5%, O=C(NCc1ccccc1)c1cccc(Nc2nc3ccccc3n3nnnc23)c1 -15.7%, Cc1cccc(OCC(=O)OCc2cc(=O)n3nc(C4CC4)sc3n2)c1 -6.63%, CCOC(=O)c1c(C)oc2ncnc(Nc3ccc(CC)cc3)c12 -14.2%, CC1CCN(C(=O)CN2CCSc3ccc(S(=O)(=O)N(C)C)cc32)CC1 -19.6%, O=C(C1CCN(S(=O)(=O)c2cccc3nonc23)CC1)N1CCN(c2ccc(F)cc2)CC1 -38.6%, CCOc1ccc(CNC(=O)CCS(=O)(=O)c2cc3c4c(c2)CCN4C(=O)CC3)cc1 -0.789%, CC(=O)c1ccc(NC(=O)C(Cc2ccccc2)NS(=O)(=O)c2ccc3c(c2)CCC(=O)N3)cc1 (stereo unspecified) 2.51%, COc1ccc(/C=C/c2nc(-c3ccccc3O)n(-c3ccccc3)n2)cc1OC 0.794%, Cc1cc(C)cc(OC(=O)c2cc(-c3ccc4c(c3)OCCO4)on2)c1 -7.89%, CN(C)CCCN1c2ccccc2Sc2ccc(Cl)cc21 -6.71%, CCC(=O)N1CCc2cc(S(=O)(=O)NCCC(=O)NC(C)c3ccccc3)ccc21 (stereo unspecified) -5.3%, Cc1c(C2=CCN(S(=O)(=O)c3ccc(Cl)cc3)CC2)c2ccccc2n1CC(=O)N1CCCC1 -23.4%, CCc1ccc2oc(C(=O)Nc3nc(-c4ccc(F)cc4)ns3)c(C)c2c1 -11.6%, COc1ccc(-c2cc(C(F)(F)F)n3nc(C(=O)OC(C)C)cc3n2)cc1 -5.71%, Cc1cc2c(n1-c1ccc(C(=O)NCCc3ccc(Cl)cc3)cc1)CCC(C)C2 (stereo unspecified) -14.5%, COc1ccc(N(Cc2nnc3n2CCCCC3)C(=O)Nc2ccc(Cl)cc2)cc1Cl -5.85%, CCC1CCCCN1C(=O)CSc1n[nH]c(-c2ccccc2)n1 (stereo unspecified) -13.6%, Cc1c(Cl)cccc1NC(=O)C(C)n1nc(C)c2c(C)n(-c3ccccc3)nc2c1=O (stereo unspecified) -20.4%, Cc1cccc(OCC(=O)Nc2ccc(OCc3cc(=O)n4cc(C)ccc4n3)cc2)c1 -13.1%, CC(=O)Nc1ccc(Nc2nc3ccc(Cl)cc3n3cnnc23)cc1 -5.11%, CNC(=O)c1ccc(-c2nc(CN3CCc4ccccc43)c(C)o2)cc1 -11.8%, CCOc1ccccc1CNC(=O)C1CCN(c2nnc(C)c3c(C)n(-c4ccc(C)cc4)nc23)CC1 -7.87%, O=C(CC1(O)C(=O)N(CCc2ccccc2)c2ccc(Br)cc21)c1ccccc1 (stereo unspecified) -23.7%, Cc1cccc(N2CCN(S(=O)(=O)c3nnc(NC(=O)c4ccc(Cl)cc4)s3)CC2)c1 -1.82%, COc1ccc(OC)c(NC(=O)c2ccc3nc(C(C)C)oc3c2)c1 -10.6%, O=C1CC(c2nnc(Cc3ccc(F)cc3)o2)CN1c1ccccc1 (stereo unspecified) -4.82%, Fc1ccccc1-n1ncc2c1ncn1nc(COc3ccc(Cl)cc3)nc21 -11.7%, COc1ccccc1CNC(=O)c1cc(S(=O)(=O)N2CCCCCC2)cn1C -12.6%, Cc1cccc(NC(=O)CSc2cn(CC(=O)N3CCC(C)CC3)c3ccccc23)c1C -8.17%, COc1ccccc1NC(=O)c1sc2nc(C)c(C(=O)Nc3ccc(Cl)cc3)c(-c3ccc(Br)cc3)c2c1N -21.4%, CC(C)(C)C(=O)NC1CC(=O)N(c2ccc3c(c2)OCCO3)C1 (stereo unspecified) -1.41%, Cc1ccccc1CN1CCC(CNC(=O)c2cc3ccc4cccnc4c3[nH]2)CC1 -4.6%, CCc1cccc(NC(=O)c2cc(S(=O)(=O)N3CCCCCC3)cn2C)c1 -4.17%, COc1ccccc1N1CCN(C(=O)c2cc3c(s2)-c2ccccc2OC3)CC1 -14.2%, CCN(c1ccccc1)S(=O)(=O)c1ccc(NC(=O)c2cc(=O)c3c(C)cc(C)cc3o2)cc1 2.84%, COc1cccc(-c2cc(C(F)(F)F)n3nc(-c4ccc(C)cc4)cc3n2)c1 -4.2%, CNS(=O)(=O)c1ccc(NC(=O)c2nc3nc(C)cc(C(F)F)n3n2)cc1 -0.615%, O=C1CCc2cc(S(=O)(=O)NC(C(=O)Nc3ccc(F)cc3)c3ccccc3)ccc2N1 (stereo unspecified) -15.9%
